Experimental data reported in PubChem BioAssay AID686978 (National Center for Advancing Translational Sciences (NCATS), 2013).
The whole screen tested about 420,000 compounds, of which about 64,000 (15%) were called active. This list was built around the results that the source calls inconclusive (neither active nor inactive); the mix of calls is not that of the screen. Calls come from the whole dose curve; as a rule, active = well fitted inhibition curve with a large enough effect; inconclusive = small, poorly fitted or top-dose-only effect; inactive = flat fitted curve, though single readings scatter. Potencies of inconclusive entries are left out as doubtful fits.

Test: qHTS for Inhibitors of human tyrosyl-DNA phosphodiesterase 1 (TDP1): qHTS in cells in absence of CPT; note: nearly all actives have a fitted effect of over 55% in size
Settings: DT40 Tdp1-/- hTDP1 cells, no CPT, ATP luminescence, 48 h; series mostly up to 46.2 µM
In short: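 Seeded 400 DT40-hTDP1 cells/well (vehicle DMSO, no 20 nM CPT); pinned compounds; ≥48 hr at 37 °C; CellTiter-Glo luminescence as viability measure.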
Potency is the fitted concentration of half-maximal effect; tags give direction and shape of the fitted curve.

SMILES | Potency
O=C(Nc1cccc(CNCCc2c[nH]c3ccccc23)c1)c1ccccc1Cl | active: 18.4 µM
NS(=O)(=O)c1ccc(NC(=O)C(=O)Nc2ccc3nc4n(c(=O)c3c2)CCCCC4)cc1 | inactive
CC1CN(CCC(=O)NCc2ccc3ncccc3c2)Cc2cc(Cl)ccc2O1 (stereo not given) | inconclusive [inhibitor, partial curve, poor fit]
C[C@H]1CCCCO[C@@H](CN(C)C(=O)NC2CCCCC2)[C@@H](C)CN([C@@H](C)CO)C(=O)c2cc(NC(=O)Cc3ccccc3)ccc2O1 | active: 18.4 µM
Cn1nc(C(=O)Nc2nc3ccccc3[nH]2)ccc1=O | inactive
CCOc1ccc(N(CC(=O)NCc2ccccc2Cl)S(=O)(=O)c2c(C)noc2C)cc1 | inconclusive [inhibitor, single point]
Cc1cccc(OCCCCCn2ccnc2)c1 | inconclusive [inhibitor, single point]
Cc1ccccc1P(=O)(c1ccccc1)c1ccccc1C | active: 18.4 µM
COc1ccc(CN(C)CC2CCCN(CCc3ccc(F)cc3)C2)cc1OC (stereo not given) | active: 23.1 µM
Cc1nn(C)c(C)c1CN(Cc1nc(-c2ccc(F)cc2F)oc1C)C1CC1 | inconclusive [inhibitor, single point]
COC(=O)CSC1=C(C#N)C(c2ccccc2)CC(=O)N1 (stereo not given) | inconclusive [inhibitor, single point]
NC(=O)COc1ccc(Nc2nnc(-c3ccc(O)cc3)c3ccccc23)cc1 | inactive
Cc1ccc(S(=O)(=O)Nc2ccccc2C=Nc2cccc(C)c2C)cc1 | inconclusive [inhibitor, single point]
CCc1ccc2c(c1)N(CC(C)CN(C)C)c1ccccc1S2 (stereo not given) | active: 15 µM
O=C(COc1cccc(Cl)c1)N/N=C\c1cc2ccccc2nc1Cl | inconclusive [inhibitor, single point]
O=C(CNS(=O)(=O)c1ccc2ccccc2c1)OCc1csc(-c2ccccc2)n1 | active: 20.6 µM
Cc1cccc(-n2ncc3c(N4CCCC(C)C4)ncnc32)c1 (stereo not given) | inconclusive [inhibitor, single point]
COc1ccc(CCC(=O)NCCS(=O)(=O)N2CCN(c3ccccc3OC)CC2)cc1 | active: 18.4 µM
O=S1(=O)c2c(F)cccc2OC(COc2ccccc2)CN1CCc1ccc(F)cc1 (stereo not given) | active: 16.4 µM
CCN(C(=O)CSc1nc2scc(-c3ccccc3)c2c(=O)n1N)C1CCS(=O)(=O)C1 (stereo not given) | inconclusive [inhibitor, partial curve, poor fit]
